Results as given in a collection of fitness landscapes (doi:10.1126/science.1257360).
The other results are listed elsewhere or left out.

B1: PhoQ; a variant is named by its letters at X, in order, P23837 (parent)
chain: MKKLLRLFFPLSLRVRFLLATAAVVLVLSLAYGMVALIGYSVSFDKTTFRLLRGESNLFYTLAKWENNKLHVELPENIDKQSPTMTLIYDENGQLLWAQRDVPWLMKMIQPDWLKSNGFHEIEADVNDTSLLLSGDHSIQQQLQEVREDDDDAEMTHSVAVNVYPATSRMPKLTIVVVDTIPVELKSSYMVWSWFIYVLSANLLLVIPLLWVAAWWSLRPIEALAKEVRELEEHNRELLNPATTRELTSLVRNLNRLLKSERERYDKYRTTLTDLTHSLKTPLXXLQXXLRSLRSEKMSVSDAEPVMLEQISRISQQIGYYLHRASMRGGTLLSRELHPVAPLLDNLTSALNKVYQRKGVNISLDISPEISFVGEQNDFVEVMGNVLDNACKYCLEFVEISARQTDEHLYIVVEDDGPGIPLSKREVIFDRGQRVDTLRPGQGVGLAVAREITEQYEGKIVAGESMLGGARMEVIFGRQHSAPKDE

Variants of: B1
Test: enrichment ratio after two sorts for PhoP signalling (ratio (wild type AVST 3.29)); higher = more functional
Conditions: with PhoP (E. coli)

Variant | enrichment ratio
IATY | ≤ 0.25
PVDY | ≤ 0.25
DIGS | ≤ 0.25
FDRV | ≤ 0.25
KLDR | ≤ 0.25
ELMF | ≤ 0.25
NYQC | ≤ 0.25
PPCT | ≤ 0.25
QRLI | ≤ 0.25
FQLV | 2.7
QLMK | ≤ 0.25
RSSQ | ≤ 0.25
PCNP | ≤ 0.25
EELP | ≤ 0.25
GYLA | ≤ 0.25
VWLG | ≤ 0.25
FVAD | ≤ 0.25
FLPE | ≤ 0.25
ALKF | ≤ 0.25
TYGN | ≤ 0.25
MQSK | ≤ 0.25
VAVV | ≤ 0.25
FNVK | ≤ 0.25
WHHV | ≤ 0.25
DPWQ | ≤ 0.25

Variant | enrichment ratio
WGTW | ≤ 0.25
TASY | 10.9
VRWK | ≤ 0.25
TDMK | 11.7
SLIR | ≤ 0.25
HKMG | ≤ 0.25
RIAN | ≤ 0.25
VQRI | ≤ 0.25
AQRP | ≤ 0.25
FCTV | ≤ 0.25
FDGP | ≤ 0.25
APND | ≤ 0.25
NIIA | ≤ 0.25
SAVH | 7.41
AICF | 13.5
LLRF | ≤ 0.25
QSTW | ≤ 0.25
IFVP | ≤ 0.25
VFET | ≤ 0.25
MVWG | ≤ 0.25
KKMP | ≤ 0.25
MRDH | ≤ 0.25
PMGF | ≤ 0.25
VDPR | 0.945
KMYG | ≤ 0.25

Variant | enrichment ratio
MYFE | ≤ 0.25
RIGE | ≤ 0.25
GKLD | ≤ 0.25
STWG | ≤ 0.25
NHKK | ≤ 0.25
FGGM | ≤ 0.25
HTLF | 3.27
GFKD | ≤ 0.25
FPAW | ≤ 0.25
YTYC | ≤ 0.25
ETKR | ≤ 0.25
YNPQ | ≤ 0.25
NITT | ≤ 0.25
LIDV | ≤ 0.25
GGNM | ≤ 0.25
IFSP | ≤ 0.25
EAMG | ≤ 0.25
DDVA | ≤ 0.25
FDRI | ≤ 0.25
MCFK | 8.62
NNSH | ≤ 0.25
GGKR | ≤ 0.25
LYQH | ≤ 0.25
TCWW | ≤ 0.25
HHQD | ≤ 0.25

Variant | enrichment ratio
WYHA | ≤ 0.25
WVYQ | ≤ 0.25
YWDI | ≤ 0.25
AHDF | ≤ 0.25
IESD | ≤ 0.25
MTQG | ≤ 0.25
KRPL | ≤ 0.25
EDCI | ≤ 0.25
TCFE | ≤ 0.25
FMLL | ≤ 0.25
GDNA | ≤ 0.25
MKKP | ≤ 0.25
MHRG | ≤ 0.25
RMPC | ≤ 0.25
EGAS | ≤ 0.25
IVCM | 6.4
FYWK | ≤ 0.25
KTTF | ≤ 0.25
LTKC | ≤ 0.25
NGYR | ≤ 0.25
HEAC | ≤ 0.25
TPTL | ≤ 0.25
NWEP | ≤ 0.25
TWLH | ≤ 0.25
WSMS | ≤ 0.25

Variant | enrichment ratio
MTTP | ≤ 0.25
AKYI | ≤ 0.25
YMKS | ≤ 0.25
EGLN | ≤ 0.25
KCCD | ≤ 0.25
VTAP | ≤ 0.25
WSIY | ≤ 0.25
RIIV | ≤ 0.25
EIMS | ≤ 0.25
LSSW | ≤ 0.25
FCHQ | ≤ 0.25
MHSN | ≤ 0.25
TLDV | ≤ 0.25
IQRM | ≤ 0.25
HMIS | ≤ 0.25
TSIV | 1.78
TNAV | 27.6
VLFY | ≤ 0.25
ADLI | 16.8
QYMI | ≤ 0.25
AWTC | ≤ 0.25
NDKV | ≤ 0.25
FIRF | ≤ 0.25
HYKI | ≤ 0.25
HQIN | ≤ 0.25

Variant | enrichment ratio
PGDC | ≤ 0.25
YCRA | ≤ 0.25
DCHR | ≤ 0.25
SYKA | ≤ 0.25
HQYH | ≤ 0.25
TAFT | ≤ 0.25
ERMS | ≤ 0.25
DYQC | ≤ 0.25
GQDS | ≤ 0.25
QKAP | ≤ 0.25
VYAN | ≤ 0.25
NVMR | ≤ 0.25
MYEL | ≤ 0.25
SQPM | ≤ 0.25
MYIH | ≤ 0.25
PNFF | ≤ 0.25
DDWN | ≤ 0.25
MYPP | ≤ 0.25
PQCK | ≤ 0.25
RGWH | ≤ 0.25
CSSF | ≤ 0.25
MCWN | 16.1
THLY | 0.451
SQMI | 7.19
AGYI | 0.303

Variant | enrichment ratio
KRYY | ≤ 0.25
AKSS | 8.3
EASH | ≤ 0.25
GRAD | ≤ 0.25
RRIN | ≤ 0.25
EVEM | ≤ 0.25
DHKY | ≤ 0.25
YPDY | ≤ 0.25
IGIL | ≤ 0.25
APAQ | ≤ 0.25
LDQE | ≤ 0.25
HRSS | ≤ 0.25
GDHE | ≤ 0.25
MMSD | ≤ 0.25
QNCV | ≤ 0.25
HKCP | ≤ 0.25
VMME | ≤ 0.25
NQGF | ≤ 0.25
SLWN | ≤ 0.25
ISYN | ≤ 0.25
PLVA | ≤ 0.25
AAVM | 6.25
FQVF | ≤ 0.25
AMLA | 2.05
HTNA | ≤ 0.25

Variant | enrichment ratio
HVHI | ≤ 0.25
YKSK | ≤ 0.25
GQRK | ≤ 0.25
IAWC | ≤ 0.25
CGFH | ≤ 0.25
EVKI | ≤ 0.25
MCYL | 13
PVLF | 0.26
SKAI | 14
IIDY | ≤ 0.25
DNEC | ≤ 0.25
VRPS | ≤ 0.25
YEEF | ≤ 0.25
WLKK | ≤ 0.25
IENY | ≤ 0.25
QLMT | ≤ 0.25
KMVG | ≤ 0.25
TEHM | 58.9
IGSL | ≤ 0.25
WCVK | ≤ 0.25
